Reference: the supplement of paper PMC11417369
± gives the standard deviation of the averaged measurements. This is one part of the list.

test system: PfAP2-EXP AP2 domain (GST-tagged); assay: gcPBM binding intensity (ln(normalized median fluorescence intensity)); higher = stronger DNA binding
Procedure, shortened: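 GST-fused DNA-binding domains of P. falciparum, expressed in E. coli, were applied at about 25 μg on average for 1 h to an Agilent 4 × 180k array of primer-extended double-stranded 36-bp intergenic genomic probes and negative controls. Binding intensity is the highest Masliner-normalised natural-log median intensity across replicate spots of either probe orientation, measured with Alexa488 anti-GST antibody and a 488 nm scan.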

Row | Sequence | gcPBM binding intensity (ln)
1 | CTTTTTTGTAATAACACACACACAAACAGAAAAAAT [CACACA_site2075] | 9.1 ± 0.57
2 | ATAAAATATCAATACCGTACACAAGCAGGTAAAATA [XGTACX_site3719] | 8.68 ± 0.37
3 | TCCTTTTGAACCCTTTTTCTCACAAGACCTTTATAT [TGCATGCA_negctrl_site413] | 8.79 ± 0.35
4 | TTTCGTTGTGTATTTTGTACATATTTTTAATTATAT [XGTACX_site6687] | 8.89 ± 0.42
5 | TTAAAAAACTATAATACACACCAAAAATATGCACAT [CACACA_site7079] | 8.94 ± 0.32
6 | AATATAAATATAAATTGTACTTAAAAATTTCACGCA [XGTACX_site5234] | 8.19 ± 0.24
7 | TTATTTCAAAGTTGTTGTACAAAAATATATTTATAA [XGTACX_site5226] | 8.63 ± 0.43
8 | TTTCTTTTTTAAATTAAAATTTTTTTTTTTTTCGGT [TGCATGCA_negctrl_site52] | 8.29 ± 0.49
9 | AAGAAAAAGATGCGCATACACACAGATGAATAACAA [CACACA_site1627] | 9.05 ± 0.66
10 | TATATAAATTATGTGAGTACATAATTTAGAAGGAAC [XGTACX_site2807] | 8.93 ± 0.34
11 | AAAGGTGTATTTAATACACACGTGTCATTAAAATTG [CACACA_site4508] | 8.38 ± 0.38
12 | AATTAAAAAGTTTTTAATGTTTTTAATTTTTTCCAC [XGTACX_negctrl_site423] | 8.27 ± 0.33
13 | AAAAAAATAATGTACACACACATATATGTTTATATA [CACACA_site6234] | 8.56 ± 0.31
14 | TAATTATTTTCGGTACGTACTAATGTATATATAATT [XGTACX_site3895] | 8.67 ± 0.42
15 | TAATAATTTTTTTTTTTTTTTTACGAAAATATGATT [GTGCAC_negctrl_site323] | 8.04 ± 0.54
16 | ATAATAAGAACTCAGTGTACTATCCTTTGAATTAAC [XGTACX_site8117] | 8.27 ± 0.33
17 | AACGTCTTTTTTTTTTTTTTTCTTTTTTTTTTTATT [CACACA_negctrl_site303] | 8.3 ± 0.51
18 | AGATATAAGAAAAGCACACACACACTAGAAAAAAAA [CACACA_site5559] | 8.93 ± 0.66
19 | TAATTCTTGTAAAATGTGCGCAGTAGATATAGTTTT | 8.85 ± 0.33
20 | ATAAAATTATATACGTGTACATATATATATTTATGT [XGTACX_site4653] | 8.39 ± 0.31
21 | ATATTTATTCAATCCAGTACATATTATATATTGTAT [XGTACX_site184] | 8.59 ± 0.3
22 | CCTTTAAGCAAAAACACACACACATATTTATTTATA [CACACA_site6294] | 8.45 ± 0.46
23 | AATTTTTTTTTTTTGTTGCACTTTTAGAGTTTTAAT [GTGCAC_site9519] | 8.56 ± 0.41

Row | Sequence | gcPBM binding intensity (ln)
24 | TAATAAATAGGACACACACACATATTTATATATCAT [CACACA_site6771] | 8.66 ± 0.46
25 | ACACATCAAATATAAAAAAAAAATAACTATAAATAA [CACACA_negctrl_site587] | 8.48 ± 0.39
26 | TATAAAAGTGGACACACACACATATATATATATATA [CACACA_site4673] | 10.2 ± 0.64
27 | TTGCAAAATTGTTTTATCACAAATATATACTTAATA [CACACA_negctrl_site403] | 8.19 ± 0.38
28 | AAAAAAAAAAAACACACACACACATACCCATACATA [CACACA_site5575] | 8.57 ± 0.52
29 | TTTCTTTTTATATTCACACATAAATATATATATATA [CACACA_site6053] | 9.81 ± 0.28
30 | ATATAAAAATATAATACACACATAAAATATATTATA [CACACA_site969] | 8.53 ± 0.32
31 | TATATAAGGAAATATTGTACTTTTATATTTATATTA [XGTACX_site3814] | 8.04 ± 0.33
32 | ATAATAATAATAAAAAGTACAAATTATTATATATAT [XGTACX_site5160] | 8.81 ± 0.29
33 | TGTATGCTTACATAATGTACGGAAAAATAAAGGCAT [XGTACX_site6923] | 9.27 ± 0.35
34 | ATATATAAATAATGTTGTACGTATTTCAAAAGTATG [XGTACX_site3363] | 8.53 ± 0.38
35 | TGCTCTCTCTTGTTGTGTACATAATACAATATATAT [XGTACX_site7427] | 9.16 ± 0.3
36 | ATATATTTGTATAATAGTACGTACAGGCAAAATATA [XGTACX_site7396] | 9.23 ± 0.42
37 | TACATTTAAAAAAAAACACACATATATATATATATA [CACACA_site2535] | 10.3 ± 0.33
38 | TTTTATGCGCAATAAGTGCATTTAAAATATATATAT | 9.3 ± 0.31
39 | TCCACTTAACTCAATTGTACAAAAATAAAAATTAAA [XGTACX_site855] | 8.35 ± 0.48
40 | ATAATATATATATATATATTATCAAATATATATATA [GTGCAC_negctrl_site346] | 9.22 ± 0.25
41 | TGTGTATATCGATAAAGTACATTTGAAAAGTGACTT [XGTACX_site6957] | 8.55 ± 0.37
42 | GTAATATGTATCCATACACACATACAGTTTATTTGC [CACACA_site6540] | 8.6 ± 0.28
43 | GTATTAATATATAATTGTACTTTTTTTTTTTTTTTT [XGTACX_site4369] | 8.45 ± 0.29
44 | AAAAAAAACGGACACACACACATTCAATATAAAACA [CACACA_site4189] | 8.69 ± 0.65
45 | TTCACATGAAGAATTAAAATAAAACTAGGAAATTAA [CACACA_negctrl_site1047] | 8.39 ± 0.45
46 | ATCACCAAATGGGCTATACAACAATGAGAAATGGTA [CACACA_negctrl_site48] | 8.7 ± 0.63

Row | Sequence | gcPBM binding intensity (ln)
47 | AATAATGAATTGAAATGTACATATTTTTATTAATAC [XGTACX_site8899] | 8.42 ± 0.2
48 | TTTTTATATTTTACATGTACATAAATATATTATATA [XGTACX_site958] | 8.63 ± 0.11
49 | ATACGAAGAAATGTTCATTTATTTCGAACATTTAAT [CACACA_negctrl_site1481] | 8.29 ± 0.33
50 | AATATAATATAATATAGTACGTAAAAATATTATACA [XGTACX_site2170] | 8.71 ± 0.35
51 | TTTTTCATAAAACACACACACAAAAATAATGTGGAA [CACACA_site3687] | 8.7 ± 0.54
52 | TTATTATTTGGTTATAGTACATAATATAATATATAT [XGTACX_site6911] | 8.56 ± 0.12
53 | CTATATTTCGTTGGACGTACAAATGTGATAATTAGG [XGTACX_site3232] | 8.71 ± 0.35
54 | TATATATATATGTATGCATGTTGTTTTTTATTTAAT [TGCATGCA_site343] | 9.95 ± 0.18
55 | AGAATTCAACAATGTTGTACATACACACACACAAAA [XGTACX_site5035] | 8.84 ± 0.4
56 | GAATTATAAGAATAAACACACAAGCTTAAAAAAAAA [CACACA_site1204] | 8.65 ± 0.45
57 | TTTGTTTGGTTTTGGTGTACTTTTTTTTTTTTTTCT [XGTACX_site2050] | 8.77 ± 0.61
58 | TTTCTTTTTTCACGTGCATGCCATTTAAGTATTAAT [TGCATGCA_site651] | 9.65 ± 0.31
59 | ACTAAACTTATATGTACACACATATAACATTAATTT [CACACA_site2258] | 8.55 ± 0.24
60 | ACATATGTATAATATGCACACGTCATTTTCCCCTTA [CACACA_site5194] | 8.89 ± 0.36
61 | AAATTATATATGATGTGTACATAAATATATACACAT [XGTACX_site8761] | 8.36 ± 0.3
62 | ATGTATTTATTTTAACGTACAAGATATTATTATTAT [XGTACX_site4609] | 8.45 ± 0.3
63 | TATATTTAGAGAGAGACACACAAAGGGACTTACACA [CACACA_site2545] | 8.82 ± 0.47
64 | TTATTATTCAAGAGGAGTACATTATGTGTATAATAT [XGTACX_site4995] | 8.59 ± 0.071
65 | AAATTATAATATAATACACACATAAAAAAAAAAAAA [CACACA_site7] | 8.44 ± 0.53
66 | ATATGGCATATTTGTATTATACATACATATGTATCT [TGCATGCA_negctrl_site562] | 8.74 ± 0.28
67 | TTAACTTTTTTATATGCACACATAAACAAGGATATA [CACACA_site8932] | 8.64 ± 0.26
68 | AATACAAAAAAAGGTACACACATAATATATTTATTA [CACACA_site2628] | 8.7 ± 0.34
69 | AAAAAAAAAAAGAACACACACAGTGCACATTCGGTG [CACACA_site788] | 8.695 ± 0.035

Row | Sequence | gcPBM binding intensity (ln)
70 | TGTTATTCTACATATACACACAAATAACAATTTAAA [CACACA_site1824] | 8.48 ± 0.45
71 | CTAATTGTGTATACCTGTACATATATATATATATAT [XGTACX_site416] | 10.2 ± 0.42
72 | TTTCCCTCAAATAAAGTGCATTATGATTTTAATTTA | 8.56 ± 0.057
73 | ATAATTAATGATGTATGTACGGAATTTATATATTTG [XGTACX_site5685] | 8.4 ± 0.33
74 | GTATACATATTTATAATAATAAATGTCTTATATTTT [CACACA_negctrl_site688] | 8.21 ± 0.35
75 | ATAGTAATAGAATGATTGCACTTAAATTTTCCCTCT | 8.34 ± 0.3
76 | TTAAATAATTCTTTTAGTACACACGAATAAGCAGAT [XGTACX_site623] | 8.84 ± 0.32
77 | TAATATATTAATATATGTACGTATTTTTATTAATAT [XGTACX_site5346] | 8.56 ± 0.35
78 | TATCTTATATATAAGTGTACGCAGATTCTTACGATA [XGTACX_site6058] | 8.59 ± 0.24
79 | ATATATATATATATATGTACATATGTCAACTGTCTA [XGTACX_site8636] | 10.3
80 | CATACATACAAACACACACACATATATATACATACA [CACACA_site852] | 8.77 ± 0.36
81 | ATATATCAAATAGACAAACACACAAAGGAAGAGTGA [CACACA_site3922] | 8.99 ± 0.46
82 | TATGTATTAATGAGAACATGCAAAATAATAAACAAT [TGCATGCA_site362] | 9.26 ± 0.26
83 | CATATACACGAACACACACACACACGCACAAAAAAA [CACACA_site6376] | 8.72 ± 0.44
84 | CACAGACACGGACACACACACACACCCAGACACATA [CACACA_site4357] | 8.69 ± 0.3
85 | AATAATATATGGACATGTACATAATATATATTTTTT [XGTACX_site312] | 8.45 ± 0.34
86 | TGTTTTATTTATTAAGCACACGCGATTTAAAAAATA [CACACA_site981] | 8.46 ± 0.22
87 | TTCATATAATTCATCTGTACATATTGATAGTATGCA [XGTACX_site6386] | 8.45 ± 0.35
88 | TCAAATGTGTAATCTTGTACACATTAAAAGAAAAAA [XGTACX_site8822] | 8.44 ± 0.28
89 | TTTGTTCTTTTTGAAGTGCACTGAAATATAACAAAA | 9.12 ± 0.4
